Experimental findings from PMC4336329 (PLoS ONE, 2015) are described below.

Hit rate of the full screen: of about 310,000 compounds, about 2,200 (0.71%) showed an effect of 50% or more. Effects have a minus sign here. This is one part of the list.

human ether-à-go-go-related gene (hERG) potassium channel, sequence (Q12809 whole entry, looked up): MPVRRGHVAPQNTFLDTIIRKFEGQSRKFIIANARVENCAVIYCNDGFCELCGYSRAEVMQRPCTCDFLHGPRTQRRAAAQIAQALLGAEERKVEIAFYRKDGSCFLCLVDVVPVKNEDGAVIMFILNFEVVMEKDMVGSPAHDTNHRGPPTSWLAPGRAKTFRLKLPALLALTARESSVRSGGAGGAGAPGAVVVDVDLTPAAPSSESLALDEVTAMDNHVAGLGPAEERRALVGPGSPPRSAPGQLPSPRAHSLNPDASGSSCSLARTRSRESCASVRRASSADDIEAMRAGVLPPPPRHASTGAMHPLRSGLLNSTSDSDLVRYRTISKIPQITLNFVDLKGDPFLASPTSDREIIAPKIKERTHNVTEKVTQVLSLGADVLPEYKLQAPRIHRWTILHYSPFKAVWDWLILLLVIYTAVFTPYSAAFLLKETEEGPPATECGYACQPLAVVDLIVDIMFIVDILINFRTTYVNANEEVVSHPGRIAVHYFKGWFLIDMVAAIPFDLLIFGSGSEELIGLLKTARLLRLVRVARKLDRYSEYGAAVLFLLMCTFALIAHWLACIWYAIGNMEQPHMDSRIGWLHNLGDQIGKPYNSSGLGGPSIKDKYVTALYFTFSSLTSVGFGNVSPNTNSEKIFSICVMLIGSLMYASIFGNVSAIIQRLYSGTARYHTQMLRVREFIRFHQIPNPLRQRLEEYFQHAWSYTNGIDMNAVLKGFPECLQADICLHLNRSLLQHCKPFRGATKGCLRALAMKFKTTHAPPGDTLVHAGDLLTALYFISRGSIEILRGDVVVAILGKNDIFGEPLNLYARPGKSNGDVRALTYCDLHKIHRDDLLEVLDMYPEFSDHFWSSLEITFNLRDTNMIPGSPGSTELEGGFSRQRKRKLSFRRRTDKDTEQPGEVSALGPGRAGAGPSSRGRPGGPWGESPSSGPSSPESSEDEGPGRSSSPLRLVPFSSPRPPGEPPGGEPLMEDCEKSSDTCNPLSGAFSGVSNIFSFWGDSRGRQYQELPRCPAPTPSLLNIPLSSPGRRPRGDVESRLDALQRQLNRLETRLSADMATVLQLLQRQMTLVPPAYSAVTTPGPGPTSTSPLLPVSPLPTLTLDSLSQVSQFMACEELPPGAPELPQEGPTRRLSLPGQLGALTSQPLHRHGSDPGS

The experiment concerns the target human ether-à-go-go-related gene (hERG) potassium channel (human, UniProt Q12809). Nature of the experiment: primary screen, population patch clamp on CHO cells stably expressing hERG.
For `Cc1nn(Cc2ccc(Cl)cc2Cl)c(C)c1NC(=O)c1ccc(COc2cc(Cl)ccc2Cl)o1`, the “hERG current change (%, negative = inhibition) at 1uM” value worked out at 3.19%.
In the case of `Cc1cccc(CNC(=O)c2ccc3c(c2)N(C)CCS3)c1`, the “hERG current change (%, negative = inhibition) at 1uM” value is listed as -20.7%.
Regarding `CC(C)(C)C(O)/C=C/c1ccc2c(c1)OCO2` (stereo not shown), the “hERG current change (%, negative = inhibition) at 1uM” value was 9.29%.
For `CCOC(=O)CN(C(=O)CSc1nnc(-c2ccc(OC)c(OC)c2)o1)c1ccc(F)cc1`, the “hERG current change (%, negative = inhibition) at 1uM” value was determined as 0.729%.
As for `Cc1ccccc1-n1c(=O)n(Cc2ccco2)c(=O)c2[nH]cnc21`, the “hERG current change (%, negative = inhibition) at 1uM” value was determined as 12.8%.
With `O=C(Nc1nnc(-c2ccc(Cl)cc2)o1)c1ccc(N2C(=O)CCC2=O)cc1`, the “hERG current change (%, negative = inhibition) at 1uM” value is given as 4.39%.
With `O=C(c1cc(-c2cccs2)on1)N1CCOCC1`, the “hERG current change (%, negative = inhibition) at 1uM” value is -6.55%.
Consider `CCC1S/C(=N/C(=O)NC2CCCCC2)NC1=O` (stereo not shown), for which the “hERG current change (%, negative = inhibition) at 1uM” value is on record as 14.7%.
In the case of `CN(C)C(CNC(=O)CCNC(=O)c1ccc(Br)cc1)c1ccco1` (stereo not shown), the “hERG current change (%, negative = inhibition) at 1uM” value is recorded as 3.59%.
As to `CC(C)COc1ccc(/C(=N/O)c2ccccc2)cc1`, the “hERG current change (%, negative = inhibition) at 1uM” value amounted to 14.1%.
For the compound `O=C1CC(=O)N(CCNc2ncc(C(F)(F)F)cc2Cl)C(=O)N1`, the “hERG current change (%, negative = inhibition) at 1uM” value worked out at 18.2%.
Take `O=C(c1ccco1)N1CCN(C2CC(=O)N(c3ccc(F)c(Cl)c3)C2=O)CC1` (stereo not shown): the “hERG current change (%, negative = inhibition) at 1uM” value worked out at 2.02%.
Under `NS(=O)(=O)c1ccc(CCNC(=O)CN2C(=O)c3ccccc3S2(=O)=O)cc1` stands -0.323%; under `COc1cc(NC(=O)CCNC(=O)Cn2cnc3ccccc3c2=O)cc(OC)c1OC`, 21.4%; under `O=S(=O)(c1ccccc1)N1CCN(c2ccccc2)CC1`, 14.5%.
On to `Cc1cccc(C(=O)OC(C)C(=O)N2CCc3ccccc3C2)c1C` (stereo not shown), for which the “hERG current change (%, negative = inhibition) at 1uM” value worked out at 5.93%.
Consider `Cc1ccc(S(=O)(=O)c2nc(-c3ccc(F)cc3)oc2N2CCOCC2)cc1`, for which the “hERG current change (%, negative = inhibition) at 1uM” value is given as -0.115%.
With `CC1CCC2(CC1)NC(=O)N(CC(=O)NCCc1c[nH]c3ccccc13)C2=O` (stereo not shown), the “hERG current change (%, negative = inhibition) at 1uM” value is given as -5.87%.
With `CC(C)CCNc1nc2ccccc2nc1NS(=O)(=O)c1cccs1`, the “hERG current change (%, negative = inhibition) at 1uM” value was 5.67%.
Under `c1ccc2[nH]c(N3CCOCC3)nc2c1` stands 4.17%; under `COc1ccc(NC(=O)N2CCCC(c3nc(-c4ccc(OC)cc4)no3)C2)cc1` (stereo not shown), 1.38%; under `S=C(Nc1ccccc1)N(CCN1CCOCC1)Cc1cccc(Cl)c1`, 8.7%.
Turning to `COc1ccc(OCC(=O)Nc2c(C(=O)N3CCN(C)CC3)oc3ccccc23)cc1`, the “hERG current change (%, negative = inhibition) at 1uM” value is reported as -15%.
For `CCN(C(=O)Cn1ccc(C(F)(F)F)n1)c1c(N)n(Cc2ccccc2)c(=O)[nH]c1=O`, the “hERG current change (%, negative = inhibition) at 1uM” value is -4.36%.
Regarding `CC(C)(C)OC(=O)N[C@@H](Cc1c[nH]c2ccccc12)c1nnc(SCC(N)=O)o1`, the “hERG current change (%, negative = inhibition) at 1uM” value stood at 6.29%.
Take `COc1ccc(C)cc1NC(=O)CC(NC(C)=O)c1ccccc1` (stereo not shown): the “hERG current change (%, negative = inhibition) at 1uM” value worked out at 5.97%.
As for `CC(C)C[C@@]12C(=O)N(c3ccc(Br)cc3)C(=O)N1[C@H](c1ccc(Br)cc1)[C@@H]1C(=O)N(C(C)(C)C)C(=O)[C@@H]12`, the “hERG current change (%, negative = inhibition) at 1uM” value is 5.48%.
On to `CN(Cc1ccccc1)C(=O)c1ccc(NC(=O)Cc2cccc(NC(=O)C3CCN(C(=O)C4CCCCC4)CC3)c2)cc1`, for which the “hERG current change (%, negative = inhibition) at 1uM” value is recorded as 6.82%.
As to `COc1cc(S(=O)(=O)NCc2ccccn2)c(OC)cc1Cl`, the “hERG current change (%, negative = inhibition) at 1uM” value is listed as 7.67%.
Regarding `Cc1nc2c(c(=O)[nH]1)C(c1ccccc1Cl)c1c(c3ccccc3oc1=O)O2` (stereo not shown), the “hERG current change (%, negative = inhibition) at 1uM” value stood at 9.85%.
Under `CC1=C(C(=O)Nc2ccc(C)cc2)C(c2ccco2)NC(=O)N1` (stereo not shown) stands 7.52%; under `COc1ccc(-c2nnn(CC(=O)NCc3ccccc3)n2)cc1OC`, 8.49%; under `NC(=O)COC(=O)c1cc(=O)[nH]c2ccccc12`, 8.25%.
Turning to `CCOC(=O)/C(C#N)=C/c1c(Oc2cc(C)cc(C)c2)nc2ccccn2c1=O`, the “hERG current change (%, negative = inhibition) at 1uM” value was 9.54%.
On to `COc1ccc(NC(=S)N(CCN(C)C)C(C)c2ccco2)cc1Cl` (stereo not shown), for which the “hERG current change (%, negative = inhibition) at 1uM” value is on record as 9.29%.
For the compound `CCc1c(C)nc(SCc2ccccn2)[nH]c1=O`, the “hERG current change (%, negative = inhibition) at 1uM” value stood at 7.35%.
Take `CC(=O)Oc1ccc(/C=c2\sc3ncnn3c2=O)cc1`: the “hERG current change (%, negative = inhibition) at 1uM” value is 6.94%.
As for `O=C(NCc1cccnc1)C1CC(=O)N(C2CCCCC2)C1` (stereo not shown), the “hERG current change (%, negative = inhibition) at 1uM” value is 7.58%.
`CCCOC1CCCN(Cc2nc(-c3ccc(C(=O)OC)cc3)no2)C1` (stereo not shown): the “hERG current change (%, negative = inhibition) at 1uM” value is reported as 9.34%.
Consider `CCOC(=O)CC(NC(=O)CCS(=O)(=O)c1ccc2c(c1)n(C)c(=O)c(=O)n2C)c1ccc(C)cc1` (stereo not shown), for which the “hERG current change (%, negative = inhibition) at 1uM” value was 17.3%.
As to `COc1ccc(C(=O)N(Cc2ccco2)Cc2cccs2)c(O)c1`, the “hERG current change (%, negative = inhibition) at 1uM” value is given as 15.4%.
With `COc1ccc(N(C)S(=O)(=O)c2cccc(C(=O)Nc3cccc(C(=O)NC4CC4)c3)c2)cc1`, the “hERG current change (%, negative = inhibition) at 1uM” value is given as 3.16%.
For the compound `C#CCn1c(=NC(=O)CN2C(=O)CCC2=O)sc2cc(S(N)(=O)=O)ccc21`, the “hERG current change (%, negative = inhibition) at 1uM” value was determined as 13.7%.
